Data from publication PMC4538817.
These are yes or no findings as the source states them, for the method shown. In cells and extracts the contact can be indirect. Some entries that bind do so weakly or less than the wild type. For part of these data: Where a sequence is shown, tags or fusion partners need not be part of it.

Legend:
[1] = biological target: T1, HA-tagged human TRAF2 (human), Q12933; assay: co-IP; HEK293 (text: HEK293T), silenced or not for FKBP51 (siRNA), transfected with combinations of HA-IKKα, -IKKβ, -IKKγ, -TAK1, -TRAF2 and Flag-FKBP51; precipitating antibody not told; conditions: remark: other sources report otherwise
T1 chain: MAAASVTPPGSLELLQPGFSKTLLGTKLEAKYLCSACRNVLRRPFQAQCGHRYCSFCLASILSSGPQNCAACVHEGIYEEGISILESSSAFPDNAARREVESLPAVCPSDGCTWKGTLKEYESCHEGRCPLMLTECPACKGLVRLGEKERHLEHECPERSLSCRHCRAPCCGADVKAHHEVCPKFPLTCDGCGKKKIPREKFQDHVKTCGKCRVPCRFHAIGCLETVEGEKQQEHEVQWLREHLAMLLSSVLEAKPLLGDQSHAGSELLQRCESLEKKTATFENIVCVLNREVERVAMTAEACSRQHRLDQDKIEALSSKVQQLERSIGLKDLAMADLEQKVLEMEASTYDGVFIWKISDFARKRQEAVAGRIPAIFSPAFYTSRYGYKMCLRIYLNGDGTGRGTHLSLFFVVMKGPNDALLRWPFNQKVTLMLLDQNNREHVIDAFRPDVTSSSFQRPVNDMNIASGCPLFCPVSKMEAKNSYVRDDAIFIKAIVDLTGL

[2] = biological target: T2, HA-tagged human TRAF2 (human) (UniProt Q12933); assay: as above
T2 sequence: T1 chain

[3] = biological target: T2, HA-tagged human TRAF2 (human); assay: co-IP; as a5, the cells silenced for FKBP51 (siRNA)
[4] = biological target: T3, Flag-FKBP51 (pRK5 FKBP51 WT) (UniProt Q13451); assay: co-IP; HEK293T (legends: HEK293) co-transfected with Flag-FKBP51 or its mutants and HA-tagged partners; anti-Flag immunoprecipitation, blot with anti-HA, anti-TRAF2 or anti-IKKα/β; RIPA buffer; with or without FK506 (Figure 3B); the precipitating antibody is not told for Figures 3B and 4B
T3 sequence: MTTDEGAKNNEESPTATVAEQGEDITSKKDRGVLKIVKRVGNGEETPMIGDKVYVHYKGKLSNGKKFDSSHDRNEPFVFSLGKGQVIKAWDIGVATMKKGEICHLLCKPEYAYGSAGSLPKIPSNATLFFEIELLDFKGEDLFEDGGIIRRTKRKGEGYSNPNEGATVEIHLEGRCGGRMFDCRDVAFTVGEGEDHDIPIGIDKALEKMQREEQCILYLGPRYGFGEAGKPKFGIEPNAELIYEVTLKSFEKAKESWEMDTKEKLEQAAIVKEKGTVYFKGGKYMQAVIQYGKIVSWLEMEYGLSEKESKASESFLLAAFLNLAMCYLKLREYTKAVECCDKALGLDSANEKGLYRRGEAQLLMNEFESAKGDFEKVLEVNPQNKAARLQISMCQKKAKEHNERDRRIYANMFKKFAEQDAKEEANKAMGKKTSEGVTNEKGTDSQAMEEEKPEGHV

[5] = biological target: T4, endogenous IKKα (human (endogenous in A375)) (UniProt O15111); assay: co-IP; endogenous IKKα and endogenous FKBP51 immunoprecipitated from whole lysates of A375 melanoma cells; immunoblot
T4 sequence: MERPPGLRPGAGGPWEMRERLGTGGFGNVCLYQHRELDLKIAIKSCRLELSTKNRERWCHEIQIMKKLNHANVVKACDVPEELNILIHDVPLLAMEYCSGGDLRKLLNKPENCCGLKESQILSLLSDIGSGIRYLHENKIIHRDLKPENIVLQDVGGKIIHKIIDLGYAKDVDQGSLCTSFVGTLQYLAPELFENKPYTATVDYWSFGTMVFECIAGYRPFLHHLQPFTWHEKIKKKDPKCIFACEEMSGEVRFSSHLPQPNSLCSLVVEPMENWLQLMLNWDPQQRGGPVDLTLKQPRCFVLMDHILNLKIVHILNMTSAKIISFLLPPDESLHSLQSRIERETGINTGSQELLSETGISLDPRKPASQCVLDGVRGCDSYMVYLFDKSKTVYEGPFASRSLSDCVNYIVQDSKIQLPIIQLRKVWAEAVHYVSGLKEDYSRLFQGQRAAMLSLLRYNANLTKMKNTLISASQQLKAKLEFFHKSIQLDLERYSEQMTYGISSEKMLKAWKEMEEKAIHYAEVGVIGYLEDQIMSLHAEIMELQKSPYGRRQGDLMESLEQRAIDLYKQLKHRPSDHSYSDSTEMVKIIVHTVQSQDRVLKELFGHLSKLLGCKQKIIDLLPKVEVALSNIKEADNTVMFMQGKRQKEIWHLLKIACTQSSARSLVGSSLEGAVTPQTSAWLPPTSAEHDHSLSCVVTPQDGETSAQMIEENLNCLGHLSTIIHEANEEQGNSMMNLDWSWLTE

[6] = biological target: endogenous IKKγ (human (endogenous in A375)), Q9Y6K9; assay: co-IP; endogenous IKKγ immunoprecipitated from whole lysates of A375 melanoma cells, control or stably knocked down for FKBP51; immunoblot; conditions: remark: other sources report otherwise

B1: HA-tagged human TAK1, O43318 1-606 (protein)
chain: MSTASAASSSSSSSAGEMIEAPSQVLNFEEIDYKEIEVEEVVGRGAFGVVCKAKWRAKDVAIKQIESESERKAFIVELRQLSRVNHPNIVKLYGACLNPVCLVMEYAEGGSLYNVLHGAEPLPYYTAAHAMSWCLQCSQGVAYLHSMQPKALIHRDLKPPNLLLVAGGTVLKICDFGTACDIQTHMTNNKGSAAWMAPEVFEGSNYSEKCDVFSWGIILWEVITRRKPFDEIGGPAFRIMWAVHNGTRPPLIKNLPKPIESLMTRCWSKDPSQRPSMEEIVKIMTHLMRYFPGADEPLQYPCQYSDEGQSNSATSTGSFMDIASTNTSNKSDTNMEQVPATNDTIKRLESKLLKNQAKQQSESGRLSLGASRGSSVESLPPTSEGKRMSADMSEIEARIAATTAYSKPKRGHRKTASFGNILDVPEIVISGNGQPRRRSIQDLTVTGTEPGQVSSRSSSPSVRMITTSGPTSEKPTRSHPWTPDDSTDTNGSDNSIPMAYLTLDHQLQPLAPCPNSKESMAVFEQHCKMAQEYMKVQTEIALLLQRKQELVAELDQDEKDQQNTSRLVQEHKKLLDENKSLSTYYQQCKKQLEVIRSQQQKRQGTS
For B1, the binding [1] was “binds”.

B2: HA-tagged human IKKβ (protein, UniProt O14920 1-756)
chain: MSWSPSLTTQTCGAWEMKERLGTGGFGNVIRWHNQETGEQIAIKQCRQELSPRNRERWCLEIQIMRRLTHPNVVAARDVPEGMQNLAPNDLPLLAMEYCQGGDLRKYLNQFENCCGLREGAILTLLSDIASALRYLHENRIIHRDLKPENIVLQQGEQRLIHKIIDLGYAKELDQGSLCTSFVGTLQYLAPELLEQQKYTVTVDYWSFGTLAFECITGFRPFLPNWQPVQWHSKVRQKSEVDIVVSEDLNGTVKFSSSLPYPNNLNSVLAERLEKWLQLMLMWHPRQRGTDPTYGPNGCFKALDDILNLKLVHILNMVTGTIHTYPVTEDESLQSLKARIQQDTGIPEEDQELLQEAGLALIPDKPATQCISDGKLNEGHTLDMDLVFLFDNSKITYETQISPRPQPESVSCILQEPKRNLAFFQLRKVWGQVWHSIQTLKEDCNRLQQGQRAAMMNLLRNNSCLSKMKNSMASMSQQLKAKLDFFKTSIQIDLEKYSEQTEFGITSDKLLLAWREMEQAVELCGRENEVKLLVERMMALQTDIVDLQRSPMGRKQGGTLDDLEEQARELYRRLREKPRDQRTEGDSQEMVRLLLQAIQSFEKKVRVIYTQLSKTVVCKQKALELLPKVEEVVSLMNEDEKTVVRLQEKRQKELWNLLKIACSKVRGPVSGSPDSMNASRLSQPGQLMSQPSTASNSLPEPAKKSEELVAEAHNLCTLLENAIQDTVREQDQSFTALDWSWLQTEEEEHSCLEQAS
B2 was tested, and the binding [2] was “binds”, the binding [3] was “no binding (condition: FKBP51 silenced (siRNA))” and the binding [4] was “binds”.

B3: endogenous FKBP51 (protein, UniProt Q13451 1-457)
chain: T3 sequence
For B3, the binding [5] was “binds”.

B4: endogenous IKKα, O15111 1-745 (protein)
chain: T4 sequence
B4 was tested, and the binding [6] was “binds”.
